Source: PubChem BioAssay AID504332 (National Center for Advancing Translational Sciences (NCATS), 2011)
Out of some 350,000 compounds screened, about 31,000 (8.9%) were called active. The shares of active, inactive and inconclusive entries below differ from those in the screen. The call rests on the fitted dose curve; in most records, active means well fitted inhibition curve with a large enough effect; inconclusive means small, poorly fitted or top-dose-only effect; inactive means no such curve, though single readings can be large or run the other way. Where the call is inconclusive, the potency comes from a doubtful curve fit.

What follows are molecules tested against Histone-lysine N-methyltransferase EHMT2 (Homo sapiens) (UniProt Q96KQ7) (assay: qHTS Assay for Inhibitors of Histone Lysine Methyltransferase G9a). Settings: G9a H3K9 monomethylation, AlphaScreen, 2 h; activity, negative = inhibition: at 59 µM (top of the series) unless noted.
Sequence of UniProt Q96KQ7 (Q96KQ7 whole entry, looked up): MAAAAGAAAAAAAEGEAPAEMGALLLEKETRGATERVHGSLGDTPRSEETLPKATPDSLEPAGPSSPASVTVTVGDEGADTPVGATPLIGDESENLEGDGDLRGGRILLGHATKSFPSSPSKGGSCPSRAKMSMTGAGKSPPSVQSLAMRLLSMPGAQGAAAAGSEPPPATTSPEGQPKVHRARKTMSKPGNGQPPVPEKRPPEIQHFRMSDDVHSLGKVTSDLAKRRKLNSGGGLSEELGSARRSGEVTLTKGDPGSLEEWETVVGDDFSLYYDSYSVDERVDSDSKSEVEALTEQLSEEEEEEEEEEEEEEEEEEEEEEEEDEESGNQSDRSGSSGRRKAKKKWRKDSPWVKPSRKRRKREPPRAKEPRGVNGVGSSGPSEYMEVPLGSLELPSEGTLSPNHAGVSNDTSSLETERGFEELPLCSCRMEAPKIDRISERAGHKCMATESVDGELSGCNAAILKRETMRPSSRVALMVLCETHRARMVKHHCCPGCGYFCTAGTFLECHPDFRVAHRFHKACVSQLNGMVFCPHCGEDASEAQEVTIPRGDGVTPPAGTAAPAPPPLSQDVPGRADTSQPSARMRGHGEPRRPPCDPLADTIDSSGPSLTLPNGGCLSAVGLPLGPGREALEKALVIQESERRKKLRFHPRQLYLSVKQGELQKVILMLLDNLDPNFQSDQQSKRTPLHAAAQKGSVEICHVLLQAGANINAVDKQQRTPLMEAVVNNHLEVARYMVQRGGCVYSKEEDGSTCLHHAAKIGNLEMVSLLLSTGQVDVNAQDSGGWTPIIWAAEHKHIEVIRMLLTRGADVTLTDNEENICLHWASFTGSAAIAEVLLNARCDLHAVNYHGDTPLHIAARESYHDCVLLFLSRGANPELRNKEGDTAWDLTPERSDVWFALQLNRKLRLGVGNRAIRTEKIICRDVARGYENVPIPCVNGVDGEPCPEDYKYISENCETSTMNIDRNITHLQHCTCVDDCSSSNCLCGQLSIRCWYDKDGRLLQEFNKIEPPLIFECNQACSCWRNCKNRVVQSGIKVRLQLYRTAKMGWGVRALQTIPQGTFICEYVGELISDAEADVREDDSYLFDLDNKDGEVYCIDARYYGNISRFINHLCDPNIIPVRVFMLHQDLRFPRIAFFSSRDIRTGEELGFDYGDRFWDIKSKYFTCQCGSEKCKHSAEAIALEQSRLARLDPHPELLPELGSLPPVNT
How it was run: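 AlphaScreen read-out: biotin-H3K9 peptide (500 nM) methylation by 20 nM enzyme with 20 uM SAM, 2 h at room temperature after 15 min compound preincubation; anti-monomethyl H3K9 antibody plus donor/acceptor beads, 10 min dark.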
Further: nearly all actives have a fitted effect of over 75% in size.
On the % scale 0 is the no-effect control and ±100 the full control effect; potency means the concentration at half of the fitted maximal effect; tags describe the fitted curve by direction and shape.

Structure (SMILES)	activity, negative = inhibition	Potency
Cc1c(Cl)cccc1NC(=O)CNC(=O)c1ccc(F)cc1	inactive: -45.6% [at 102 µM]	
CCN(c1ccc(OC)cc1)S(=O)(=O)c1ccc2[nH]c3c(c2c1)CCCCC3		inconclusive: 7.94 µM [inhibitor, partial curve]
CCn1c(SCC(=O)Nc2cc(C)ccc2F)nnc1-c1ccccc1O	inactive: -2.87%	
Cc1ccc(CNC(=O)c2ccc3c(c2)CCN3S(=O)(=O)c2ccc(Br)cc2)cc1	inactive: 2.52%	
COc1cc(OC)cc(C(=O)NNC(=O)CNC(=O)c2ccc(Br)o2)c1	inactive: -1.19% [at 102 µM]	
Oc1ccc(Br)cc1C=Nc1cccn2cc(-c3ccccc3)nc12		inconclusive: 35.5 µM [inhibitor, full curve]
COc1cc(NC(=O)COC(=O)Cc2ccc(-c3ccccc3)cc2)cc(OC)c1		inconclusive: 39.8 µM [inhibitor, single point]
O=[N+]([O-])c1ccc(N2CCCCCC2)c([N+](=O)[O-])c1		inconclusive: 5.62 µM [inhibitor, full curve, poor fit]
Cc1ccc(-n2ncc(C(=O)N3CCc4ccccc4C3)c2NC(=O)c2ccco2)cc1C		active: 25.1 µM
CCOc1ccccc1NC(=O)CCS(=O)(=O)c1ccc2c(c1)CCN2C(C)=O	inactive: 14.2% [at 102 µM]	
CCCOc1ccc(C2c3c(oc4ccccc4c3=O)C(=O)N2c2nnc(C(C)C)s2)cc1 (stereo unspecified)		inconclusive: 25.1 µM [inhibitor, partial curve, poor fit]
Cc1c(C(=O)c2ccc(Cl)cc2Cl)cnc2cc3c(cc12)OCO3	inactive: -3.9%	
COc1ccc(C(=O)COC(=O)Cn2nnc3ccccc32)cc1Br	inactive: 7.58% [at 12.7 µM]	
N#Cc1c(SCC(=O)Nc2nccs2)sc2c(O)cc(=O)[nH]c12		active: 31.6 µM
COCCNC(=O)C(c1ccc(C)o1)N(Cc1ccc(OC)cc1)C(=O)Cn1nnc2ccccc21 (stereo unspecified)	inactive: -6.68%	
NC(=O)CSc1nnc(-c2cnccn2)n1-c1ccccc1		inconclusive: 28.2 µM [inhibitor, single point]
O=C(O)/C=C/C(=O)Nc1ccc(F)cc1F		inconclusive: 70.8 µM [inhibitor, single point]
CCN(CC)c1ccc(/C=N/N(c2ccccc2)c2ccccc2)c(O)c1		inconclusive: 11.2 µM [inhibitor, partial curve, poor fit]

Structure (SMILES)	activity, negative = inhibition	Potency
CCCCC1NC(C(=O)O)CS1 (stereo unspecified)		active: 5.01 µM
COc1ccc(C(=O)Nc2ccc(Cl)cc2C(=O)N2CCCC(C)C2)cc1OC (stereo unspecified)	inactive: 2.98% [at 102 µM]	
O=C(COC(=O)Cc1cccc(C(F)(F)F)c1)NCc1ccco1		inconclusive: 31.6 µM [inhibitor, single point]
Cc1ccc(-n2c(C)cc(C(=O)CSc3nnnn3C)c2C)cc1		active: 14.1 µM
O=C(N/N=C\C1CC=CCC1)c1ccc(Br)o1 (stereo unspecified)	inactive: 11.4% [at 102 µM]	
CCOC(=O)c1c(-c2ccc(OC)cc2)csc1/N=C/C1=C(O)CCCC1=O		inconclusive: 28.2 µM [inhibitor, single point]
Cc1ccc([N+](=O)[O-])cc1NC(=O)CSc1nnc(C)n1CC1CCCO1 (stereo unspecified)	inactive: 8.72% [at 102 µM]	
Clc1cccc(-c2nnc3sc(-c4ccc5c(c4)OCO5)nn23)c1		active: 10 µM
COCCN(C(=O)CC1CCCC1)c1c(N)n(CC(C)C)c(=O)[nH]c1=O		inconclusive: 4.47 µM [inhibitor, single point]
COc1cccc(N2CC(NS(=O)(=O)c3cccnc3)CC2=O)c1 (stereo unspecified)		inconclusive: 89.1 µM [inhibitor, partial curve, poor fit]
CCC(=O)OC1(C(=O)CCl)[C@@H](C)C[C@H]2[C@@H]3CCC4=CC(=O)C=C[C@]4(C)[C@@]3(F)[C@@H](O)C[C@@]21C (stereo partly specified)	inactive: -45.4%	
COCCNC(=O)C(=O)NCCN1CCNCC1		inconclusive: 56.2 µM [inhibitor, single point]
CCOC(=O)c1cc(S(=O)(=O)Nc2ccccc2)[nH]n1		active: 10 µM
O=C(CSc1n[nH]c(-c2ccc(F)cc2)n1)N1CCN(c2ccc(F)cc2)CC1	inactive: -23.4%	
O=C1CCCc2oc3c(cc(NS(=O)(=O)c4ccc5c6c(cccc46)C(=O)N5)c4ccccc43)c21	inconclusive: -78% [inhibitor]	
CC(=O)COc1ccc2c(-c3cccc([N+](=O)[O-])c3)cc(=O)oc2c1		inconclusive: 28.2 µM [inhibitor, partial curve, poor fit]
CCS(=O)(=O)n1nc(-c2ccc(Cl)cc2)nc1SCc1ccccc1		active: 7.08 µM
Cc1ccc(C(=O)COC(=O)c2cc(Cl)nc3ccccc23)cc1C	inactive: 2.35%	
